B1: LINE1-full (parent)
chain: UACGUAGGUGGUUUUCCCCUGAUAGUGCUAAGGGGGCCUGGAAGUUUGGACUGGGCAGAGCUCAACACAGCGUGGCAAAGUGGCUGUGGCUAGACUGCCUCUCUGGAUUCCUCGUCACUCAGCAGGGCAUCUCUGAGAGAAAUGCC

Drawing on the RNAGym collection of RNA variant scans (doi:10.7554/elife.90254), this text covers self-cleavage for 20 variants.

The source gives no read counts; variants with many changes may rest on few reads.

The data set covers variants of B1. Kind of data set: self-cleavage, relative activity (ratio to wild type); higher = more cleavage; in vitro, sequencing; the parent is a self-cleaving ribozyme.
Turning to UACGUGGGUGGUUUUCCCCUGAUAGUGCUAAGGGGGCCUGGAAGUUUGGACUGGGCAGAGCUCAACACAGCGCGGCAAAGUGGCUGCGGCUAGACUGCCUCUCUGGAUUCCUCGUCACUCAGCAGGGCAUCUCUGAGAGAAAUGCC, the self-cleavage amounted to 2.51.

As to UACGUGGGUGGUUUUCCCCUGAUAGUGCUAAGGGGGCCUGGAAGUUUGGACCGGGCAGAGCUCAACACAGCGUGGCAAAGUGGCUGUGGCUAGACAGCCUCUCUGGAUUCCUCGUCUCUCAGCAGGGCAUCUCUGAGAGAAAUGCC, the self-cleavage was determined as 0.2.

As for UACGUGGGUGGUUUUCCCCUGAUAGUGCUAAGGGGGCCUGGAAGUUCGGACUGGGCAGAGCUCAACACAGCGCGGCAAAGUGGCUGUGGCUAGACUGCCUCUCUGGAUUCCUCGUCACUCAGCAGGGCAUCUCUGAGAGAAAUGCC, the self-cleavage was 0.16. To UACGUGGGUGGUUUUCCCCUGAUAGUGCUAAGGGGGCCCGGAAGUUUGGACUGGGCAGAGCUCAACACAGCGUGGCAAAGUGGCUGUGGCUAGACUACCUCUCUGGAUUCCUCGUCACUCAGCAGGCCAUCUCUGAGAGAAAUGCC belongs 0.23; to UACGUGGGUGGUUUUCCCCUGAUAGUGCUAAGGGGGCCUGGAAGUUUGGACUGGGCAGAGCUCAACACAGCGUGGCAAAGUGGCUGAGGCUAGACUGCCUCUCUGGAUUCCUCGUCACUCAGCAGGGCAUCUCUGAGAGUAAUGCC, 0.16.

In the case of UACGUGGGUGGUUUUCCCCUGAUAGUGCUAAGGGGGCCUGGAAGUUCGGACUGGGCUGAGCUCAACACAGCGUGGCAAAGUGGCUGUGGCUAGACUGCCUCUCUGGAUUCCUCGUCACUCAGCAGGGCAUCUCUGAGAGAAAUGCC, the self-cleavage was determined as 0.2. To UACGUGGGUGGUUUUCCCCUGAUAGUGCUAAGGGGGCCUGGAAGUUUGGACUGGGCAGAGCCCAACACAGCGUGGCAAAGUGGCUGUGGCUAGACUGCCUCUCUGGAUUCCUCGUCACUCAGCAGGGCAUUUCUGAGAGAAAUGCC belongs 0.

Consider UACGUGGGUGGUUUUCCCCUGAUAGUGCUAAGGGGGCCUGGAAGCUUGGACUGGGCAGAGCUCAACACAGCGUGGCAAAGUGGCUGUGGCUAGACUGCCUCUCUGGAUUCCUCGUCACUCAGCAGGGCAUCUCUGAGAGAAAGGCC, for which the self-cleavage was found to be 0.61.

With UACGUGGGUGGUUUUCCCCUGAUAGUGCUAAGGGGGCCUGGAAGGUAGGACUGGGCAGAGCUCAACACAGCGUGGCAAAGUGGCUGUGGCUAGACUGCCUCUCAGGAUUCCUCGUCACUCAGCAGGGCAUCUCUGAGAGAGAUGCC, the self-cleavage is 0. To UACGUGGGUGGUUUUCCCCUGAUAGUGCUAAGGGGGCCUGGAAGACUGGACCGGGCAGAGCUCAACACAGCGUGGCAAAGCGGCUGUGGCUAGACUGCCUCUCUGGAUUCCUCGUCACUCAGCAGGGCAUCUCUGAGAGAAAUGCC belongs 0.84; to UACGUGGGUGGUUUUCCCCUGAUAGUGCUAAGGGGGCCCGGAAGUUUGGACUGGGCAGAGCUCAACACAGCGUGGCAAAGUGGCUGUGGCUAGACUGCCUCUCUGGAUUCCUCGUCACUCAGCGGGGCAUCUCUGAGAGAAAUGCC, 1.15; to UACGUGGGUGGUUUUCCCCUGAUAGUGCUAAGGGGGCCUGGAAGUCUGGACUGGGCAGAGCUCAACACAGCGUGGCAAAGUGGCUGUGGCUAGACUGCCUCUCUGGAUUCCUCGCCACUCAGCAGGGCAUCUCUGAGAGAAAUGCC, 0.84. To UACGUGGGUGGUUUUCCCCUGAUAGUGCUAAGGGGGCCUGGAAGUCUAGACUGGGCAGAGCUCAACACAGCGUGGCAAAGUGGCUGUGGCUAGACUGCCUCUCUGGAUUCCUCGUCACUCAGCAGGGCAUCUCUGAGAGAAAUGCC belongs 1.1. To UACGUGGGUGGUUUUCCCCUGAUAGUGCUAAGGGGGCCUGGAAGUAUGGACUGGGCAGAGUUCAACACAGCGAGGCAAAGAGGCUGUGGCUAGACUGCCUCUCUGGAUUCCUCGUCACUCAGCAGGGCAUCUCUGAGAGAAAUGCC belongs 0; to UACGUGGGUGGUUUUCCCCUGAUAGUGCUAAGGGGGCCUGGAAGUUUGGACUGGGCAGAGCUCAACACAGCGUGGCAAAGCGGCUGUGGCUAGACUGCCUCCCUGGAUACCUCGUCACUCAGCAGGGCAUCUCUGAGAGAAAUGCC, 0.84. As for UACGUGGGUGGUUUUCCCCUGAUAGUGCUAAGGGGGCCUGGAAGUCUGGACUGGGCAGAGCUCAACACAGCGUGGCAAAGUGGCUGUGGCUAGACUGCCUCUCUGGAUUCCUCGUCACUCAGCAGGGCAUCCCUGAGAGAAAUGCC, the self-cleavage stood at 0.

Take UACGUGGGUGGUUUUCCCCUGAUAGUGCUAAGGGGGCCCGGAAGUUUGGACUGGGCAGAGCUCAACACAGCGUGGCAAAGUGGCUGUGGCUAGACUGCCUCUCUGGAUUCCUCGUCACUCAGCAGGGCAUCUCUGAGAGAAGUGCC: the self-cleavage turned out to be 0. In the case of UACGUGGGUGGUUUUCCCCUGAUAGUGCUAAGGGGGCCUGGAAGUUUGGACCGGGCAAAGCUCAACACAGCGUGGCAAAGUGGCUGUGGCUAGACUGCCUCUCUGGAUUCCUCGUCACUCAGCAGGGCAUCUCUGAGAGAAAUGCC, the self-cleavage was found to be 0.09. To UACGUGGGUGGUUUUCCCCUGAUAGUGCUAAGGGGGCCUGGAAGUUUGGACUGGGCAGAGCCCAACACAGCGUGGCAAGGUGGCCGUGGCUAGACUGCCUCUCUGGAUUCCUCGUCACUCAGCAGGGCAUCUCUGAGAGAAAUGCC belongs 0. To UACGUGGGUGGUUUUCCCCUGAUAGUGCUAAGGGGGCCUGGAAGUCUGGACUGGGCAGAGCUCAACACGGCGUGGCAAAGUGGCUGUGGCUAGACUGCCUCUCUGGAUUCCUCGUCACUCAGCAGGGCAUCUCUAAGAGAAAUGCC belongs 0.07.
